The results in this text go back to ChEMBL document CHEMBL4888484, “Replenishing the malaria drug discovery pipeline: Screening and hit evaluation of the MMV Hit Generation Library 1 (HGL1) against asexual blood stage Plasmodium falciparum ,using a nano luciferase reporter read-out” (2022).

Each structure is given as a SMILES string. Out of some 150,000 compounds screened, about 540 (0.36%) showed an effect of 50% or more. The list shows a part of the results.

The test concerns Plasmodium falciparum. Nature of the test: Primary screen in NF54 nanoGlo assay, in single point, at 2uM, 72h; a lower Z score goes with more inhibition. In kind it is functional, Erythrocyte. As to conditions: timepoint 72 hour.
Turning to `Cc1nc(C)c(CNC(=O)NC[C@@H]2COc3ccccc3C2)s1`, the “% Inhibition” value is listed as -3% and the Z score was determined as 0.43.
For `Cc1cnc(C(=O)N2CC3CCCCC3C2)cn1` (stereo not drawn), in that order: -10% and 1.19.
Taken in the same sequence, the figures for `CO[C@H]1C[C@@H](O)C12CCN(C(=O)C(c1ccccc1)c1ccccc1)CC2` were 5% and -0.64.
For `CNC(=O)[C@@H]1CCCCN1CC(c1ccccc1)c1ccccc1`, in that order: 17% and -2.2.
For the compound `O=C(c1ccc(C(F)(F)F)cc1)N1CCN=C1N1CCCC1`, the “% Inhibition” value is given as -6% and the Z score was 0.89.
Taken in the same sequence, the figures for `Oc1ccc2ncccc2c1[C@@H](Nc1ccccn1)c1cccc(Cl)c1` were 34% and -3.9.
For `CC(C)C(=O)N1CCC(NC[C@@H](c2ccccc2)N2CCCCCC2)CC1`, in that order: -13% and 2.09.
For `Cc1ccc(-c2nc(CNC(=O)C3=NNC(=O)CC3)[nH]c2-c2ccccn2)cc1`, in that order: -22% and 3.58.
Consider `Cn1c(C(=O)Nc2ccc(N3CCOCC3)cc2)cc2c1CCN(Cc1ccccc1)C2`, for which the “% Inhibition” value is given as -7% and the Z score is 1.24.
In the case of `CCN1C(=O)C2(CCN(S(=O)(=O)c3cc(Cl)ccc3OC)CC2)c2ccccc21`, the “% Inhibition” value was -9% and the Z score turned out to be 1.37.
Take `COc1ccc(Cl)cc1C(C)NC1CCC(=O)N(C)C1` (stereo not drawn): the “% Inhibition” value turned out to be 5% and the Z score was -0.98.
For `COCCNc1nc(NCc2ccc(OC)cc2)nc(NCc2ccc(OC)cc2)n1`, in that order: -9% and 0.82.
Consider `O=C(C1CCCCC1)N1C[C@@H]2Oc3ncccc3S(=O)(=O)N[C@@H]2C1`, for which the “% Inhibition” value stood at 5% and the Z score is given as -0.96.
For `c1ccc(OCc2n[nH]c3c2CN(Cc2nc4c(s2)CCCC4)CC3)cc1`, in that order: 1% and -0.12.
In the case of `Cc1cc2n(n1)CCCN(C(=O)Nc1ccc(S(N)(=O)=O)cc1)C2`, the “% Inhibition” value was -9% and the Z score was 1.74.
Taken in the same sequence, the figures for `Cc1cc2cccc(NC(=O)NCCS(=O)(=O)N3CCCC3)c2o1` were 6% and -0.82.
For `CCCc1cc(C(=O)NC2CC(C(=O)O)c3ccccc32)[nH]n1` (stereo not drawn), in that order: -8% and 1.55.
For `CC(=O)N1CCn2c(nnc2[C@@H]2CCCN2Cc2cc(Cl)ccc2F)C1`, in that order: -10% and 1.45.
For the compound `Cc1cc(=O)n2nc(Oc3ccc(F)c(F)c3)sc2n1`, the “% Inhibition” value came to 12% and the Z score is -2.22.
For `Cc1ccc(CN2CCC[C@H](CCNC(=O)C(F)F)C2)cc1C`, the “% Inhibition” value is recorded as -9% and the Z score was 1.26.
Taken in the same sequence, the figures for `O=C(c1ncc(-c2ccccc2)o1)N1CCN(c2ncccn2)CC1` were 16% and -2.17.
Take `Cn1nc(-c2ccccc2)c(-c2ccccc2)nc1=O`: the “% Inhibition” value is on record as -4% and the Z score is reported as 0.57.
For `COc1ccc(CC(N)=NO[C@H]2CCOC2)cc1`, in that order: -3% and 0.53.
For `CC1(c2nsc(NC(=O)[C@@H]3CCCN3c3ccc(C#N)cc3)n2)CC1`, in that order: -12% and 1.23.
Taken in the same sequence, the figures for `Cc1ncc(CN2CCN(Cc3cccs3)[C@@H](CCO)C2)s1` were -5% and 0.8.
In the case of `Cc1nscc1NC(=O)OC(C)(C)C`, the “% Inhibition” value was 16% and the Z score is reported as -1.84.
Taken in the same sequence, the figures for `O=C(c1ccc(Oc2nccs2)cc1)N1CCC(N2C(=O)COC2=O)CC1` were -1% and 0.1.
Taken in the same sequence, the figures for `COc1ccc(N(C)S(=O)(=O)c2ccc3c(c2)CCN3C(=O)C2CCC2)cc1` were 33% and -1.02.
As for `COc1ccccc1CNC(=O)c1cccc(-n2cnc3cccnc32)c1C`, the “% Inhibition” value is listed as -2% and the Z score turned out to be 0.36.
Consider `O=C1CC[C@@]2(CCCN(C3Cc4ccccc4C3)C2)CN1CCc1c[nH]cn1`, for which the “% Inhibition” value was -14% and the Z score was found to be 1.31.
Taken in the same sequence, the figures for `Cc1ccc(N2C(=O)C3C(C)NC4(C(=O)N(CC(=O)Nc5ccccc5)c5ccccc54)C3C2=O)cc1` (stereo not drawn) were -4% and 0.51.
For `FC(F)c1nnc(N2CCCC3(CCCCCC3)C2)s1`, in that order: -7% and 0.63.
Taken in the same sequence, the figures for `O=C(O)c1ccc(CN2C[C@H]3CCN(Cc4ccccc4)[C@H]3C2)cc1` were -2% and 0.45.
For the compound `CCN(Cc1cccc(C(=O)Nc2c(C)nn(C)c2C)c1)C1CCOCC1`, the “% Inhibition” value was 3% and the Z score was -0.42.
For `CC(C)(C)OC(=O)N1CC2Cc3nc(O)ccc3C(C2)C1` (stereo not drawn), in that order: -12% and 2.19.
Take `CO[C@@]12CC[C@H](Oc3ccccn3)C[C@@H]1N(C(=O)c1c[nH]c(=O)[nH]1)CC2`: the “% Inhibition” value is recorded as -5% and the Z score was determined as 0.86.
For `CC(C)Cn1c(=O)c2c(ncn2CC(=O)c2ccc(C#N)cc2)n(-c2ccc(F)cc2)c1=O`, in that order: -13% and 2.55.
For the compound `O=C1C[C@H](c2ccc(Cl)cc2Cl)c2cnn(Cc3ccc4c(c3)OCO4)c2N1`, the “% Inhibition” value is -16% and the Z score is recorded as 2.03.
For `CCN(CC(F)(F)F)C(=O)C[C@H](C)n1ccnc1C`, in that order: -11% and 1.82.
For the compound `O=C(Nc1ccc(F)cc1)c1n[nH]c2c1CCc1ccccc1-2`, the “% Inhibition” value is -20% and the Z score is on record as 1.76.
For `CCOc1cccc(CN(C)[C@H](C)C(N)=O)n1`, in that order: 1% and -0.16.
`C[C@H](C(=O)Nc1ccccc1C(F)(F)F)C1CCN(C(=O)Nc2ccc(F)cc2)CC1`: the “% Inhibition” value is on record as -9% and the Z score stood at 1.22.
For `O=C(NCc1cnn(-c2cccc(F)c2)c1)[C@H]1CCCN(Cc2ccco2)C1`, in that order: -13% and 1.16.
For `C(=C\c1cnc2nn[nH]c2c1)/c1ccccc1`, in that order: 3% and -0.53.
Taken in the same sequence, the figures for `C[C@@]1(Cc2ccc(F)cc2)NC(=O)N(OCC2CCC2)C1=O` were -12% and 1.57.
For the compound `COc1ccc(C(=O)N2CCC([C@H](CC(=O)O)c3ccccc3)CC2)cn1`, the “% Inhibition” value amounted to 30% and the Z score is given as -3.44.
In the case of `Nc1ncccc1OCC(=O)Nc1ccccc1F`, the “% Inhibition” value is -8% and the Z score amounted to 1.03.
With `CC(C)(C)n1nnc(CN2CCC[C@H]2c2ncn[nH]2)n1`, the “% Inhibition” value is -13% and the Z score is recorded as 1.27.
In the case of `C=CCC(=O)N1CC[C@@]2(CCCN(Cc3cccc(F)c3F)C2=O)C1`, the “% Inhibition” value was -6% and the Z score is recorded as 0.81.
Taken in the same sequence, the figures for `O=C(c1cc(F)cc(F)c1)N1C[C@@H]2CC[C@H]1CN(Cc1ccccn1)C2` were -19% and 1.91.
Taken in the same sequence, the figures for `C[C@]1(CO)CN(Cc2ccc3ncccc3c2)C[C@@]1(C)CO` were 17% and -2.16.
Taken in the same sequence, the figures for `CCCc1cc(CN(C)[C@@H]2COc3c(cccc3OC)C2)n[nH]1` were -9% and 1.82.
Consider `CCN(CC)C(=O)c1ccc2c(c1)N(CC(=O)N1CCC(Cc3ccccc3)CC1)C(=O)CO2`, for which the “% Inhibition” value was -6% and the Z score is reported as 0.84.
For `O=C(c1cnccn1)N(CC1CCN(Cc2ccccc2F)CC1)C[C@H]1CCCO1`, in that order: -5% and 0.7.
As for `COc1ccc(CCOc2nc(-c3cccs3)n(-c3ccc(NC(=O)c4ccc(OC)cc4)cc3)n2)cc1`, the “% Inhibition” value is listed as 4% and the Z score is reported as -0.64.
Turning to `Cc1ccc(-c2nc3cc(C(=O)N4CCC(CC(=O)Nc5cc(C)ccc5C)CC4)ccc3o2)cc1`, the “% Inhibition” value was -17% and the Z score is recorded as 2.05.
On to `CC1CCN2C(=O)N(c3ccncc3)C(=O)C2C1` (stereo not drawn), for which the “% Inhibition” value was found to be 27% and the Z score is listed as -3.05.
For `Cn1ncc2c(NCc3cc4ccccc4[nH]3)nc(-c3ccccn3)nc21`, in that order: -3% and 0.55.
Taken in the same sequence, the figures for `O=C(C[C@H](c1ccc(Cl)c(C(F)(F)F)c1)c1c[nH]c2ccccc12)N1CCOCC1` were -6% and 0.69.
Taken in the same sequence, the figures for `CCCC(CCC)C(=O)Nc1cccc([C@H](C)O)c1` were -6% and 1.14.
As to `CN(CCc1noc(C2CC2)n1)C(=O)c1nc2ccccc2[nH]c1=O`, the “% Inhibition” value is -13% and the Z score came out at 2.28.
For `Clc1ccc(Cn2c(-c3ccccc3)cn3c4ccccc4nc23)cc1`, in that order: 6% and -0.93.
`c1cnn(CCNCc2nc(C3CC3)no2)c1`: the “% Inhibition” value was determined as 7% and the Z score is on record as -1.
Taken in the same sequence, the figures for `Cc1ccn2ncnc2c1NS(=O)(=O)c1ccc2c(c1)CCCC2` were 16% and -1.82.
Take `O=S(=O)(N[C@H]1CCc2ncccc2C1)c1cnn2c1OCCC2`: the “% Inhibition” value was -7% and the Z score came to 1.4.
For `CCOC(=O)c1c(C)c(C(=O)N2CCN(c3ccccc3Cl)CC2)c(C)n1C`, in that order: -11% and 1.37.
In the case of `Cc1nn(C[C@H](O)COCc2ccccc2)cc1Br`, the “% Inhibition” value is -1% and the Z score came to 0.16.
As to `COc1cccc(CN(C)S(=O)(=O)Cc2ccc(C)cc2F)n1`, the “% Inhibition” value was -10% and the Z score is 1.92.
Regarding `CCC[C@H]1COCCN1C(=O)Nc1cc(N2CCCC2=O)ccc1C`, the “% Inhibition” value is given as -13% and the Z score is on record as 2.48.
Taken in the same sequence, the figures for `Cc1nc(CCCC(=O)N2CC3(CCC3)[C@@H]2C(C)C)cs1` were -10% and 2.01.
Taken in the same sequence, the figures for `Cn1cncc1COc1ccc(F)cc1` were 3% and -0.27.
Turning to `CCCC[C@@H](CC(=O)O)NC(=O)c1cc(F)ccc1F`, the “% Inhibition” value was -12% and the Z score is recorded as 2.32.
As to `c1ccc(-n2ncc3c2-c2[nH]c4ccccc4c2CC3)cc1`, the “% Inhibition” value was determined as 4% and the Z score is recorded as -0.77.
Regarding `Cc1cccc(Cn2nc(-c3ccncc3)nc2COC[C@H]2CCCO2)c1`, the “% Inhibition” value is reported as -4% and the Z score was found to be 0.73.
Taken in the same sequence, the figures for `CO[C@H]1CCN(c2cc3nncn3c(C)n2)CC1(C)C` were -2% and 0.43.
Consider `CC(C)CCN1C(=O)C2(CCN(C(=O)[C@H](C)n3cccn3)CC2)Nc2ccccc21`, for which the “% Inhibition” value worked out at 14% and the Z score was -1.98.
Taken in the same sequence, the figures for `CC1CCC(C(N)=O)CN1c1nnc(-c2ccccn2)s1` (stereo not drawn) were -12% and 1.3.
Taken in the same sequence, the figures for `COc1ccc(C#CC(=O)NC[C@H]2CCCN(C(C)=O)C2)cc1` were -8% and 1.17.
For `CNc1snc(C)c1C(=O)N1CCCC1`, in that order: -19% and 1.79.
Regarding `O=S(=O)(C1CC1)N1CC(CC(F)F)C1`, the “% Inhibition” value is on record as -17% and the Z score is 1.94.
Consider `CO[C@@]12CC[C@@H](Oc3ccccn3)C[C@@H]1N(C(=O)c1cccc(C#N)c1)CC2`, for which the “% Inhibition” value is given as -10% and the Z score was found to be 0.94.
As for `CCOCCOc1ccc(Cl)cc1N`, the “% Inhibition” value came out at 2% and the Z score is on record as -0.34.
As for `CC1(C)CN(C(=O)c2ncn(C(C)(C)C)n2)[C@H]1C1CC1`, the “% Inhibition” value is reported as 30% and the Z score is given as -3.34.
Taken in the same sequence, the figures for `COc1ccc(-c2nonc2NC(=O)c2nn(-c3ccc(C)cc3)ccc2=O)cc1OC` were -4% and 0.71.
